PubChem BioAssay AID624202 (National Center for Advancing Translational Sciences (NCATS), 2012)
The whole screen tested about 380,000 compounds, of which about 4,000 (1.1%) were called active. This list was built around the results that the source calls inconclusive (neither active nor inactive); the mix of calls is not that of the screen. The call rests on the fitted dose curve; in most records, active means well fitted activation curve with a large enough effect; inconclusive means small, poorly fitted or top-dose-only effect; inactive means no such curve, though single readings can be large or run the other way. A potency beside an inconclusive call is a rough fit, not a confirmed value.

assay: qHTS Assay to Identify Small Molecule Activators of BRCA1 Expression; conditions: MCF7-BRCA1-FFLuc reporter, luminescence, 48 h; activation: at 46.1 µM (top of the series), scaled: vehicle 0%, 10 µM genistein 100% unless noted; further: nearly all actives have a fitted effect of over 80% in size
Outline: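 Reporter cells (MCF7, BRCA1 promoter-firefly luciferase) received library compounds across a concentration series for 48 h. End-point luminescence was measured and concentration-effect curves derived after normalization.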
Potency means the concentration at half of the fitted maximal effect; tags describe the fitted curve by direction and shape.

Q: Which “activation” value does the source give for S=C(NCCc1ccccn1)Nc1ccccc1Cl here?
A: inactive: 38.4%

Q: For CCOC(=O)c1c(NC(=O)CSc2cn(CCNC(=O)c3ccc(OC)c(OC)c3)c3ccccc23)sc2c1CCCC2, which “activation” value is on record?
A: inactive: -10.7%

Q: For Cc1ccsc1C1C(C(=O)O)c2ccccc2C(=O)N1C (stereo not given), which “activation” value is on record?
A: inactive: -7.14%

Q: Which Potency does the source give for COc1ccccc1-c1ccc(NC2CCCCC2)nn1 here?
A: active: 7.08 µM

Q: Which Potency does the source give for Cc1cc(N=NC(=O)c2ccccc2O)c2ccccc2c1O here?
A: active: 5.62 µM

Q: For COCCN1CN=C(Nc2nc3ccccc3o2)NC1, which Potency is on record?
A: inconclusive: 17.8 µM [activator, partial curve, poor fit]

Q: For O=C(c1cccs1)N(C(=O)c1cccs1)c1ccccn1, which Potency is on record?
A: inconclusive: 20 µM [activator, partial curve, poor fit]

Q: With CCOC(=O)CC1NCCc2c1[nH]c1ccc(OC)cc21 (stereo not given) as the compound, how does the “activation” value read?
A: inactive: -9.51%

Q: For O=C(NNC(=O)c1ccc2nc[nH]c2c1)c1ccccc1, which “activation” value is on record?
A: inactive: 10.8%

Q: Which Potency does the source give for NC(=O)c1sc2nc3c(cc2c1N)CCC3 here?
A: active: 8.91 µM

Q: Which Potency does the source give for CC(=O)Nc1ccccc1C(=O)C(=O)Nc1ccc(C)c(C)c1 here?
A: inconclusive: 8.91 µM [activator, partial curve, poor fit]

Q: For Cc1ccc(NC(=O)Nc2nnc(-c3ccccc3)o2)cc1, which Potency is on record?
A: inconclusive: 11.2 µM [activator, partial curve, poor fit]

Q: For O=C(NCCCc1ccccc1)c1ccccc1O, which Potency is on record?
A: inconclusive: 12.6 µM [activator, partial curve, poor fit]

Q: Which Potency does the source give for c1coc(CNc2nc3sc4c(c3c3ncnn23)CCCC4)c1 here?
A: inconclusive: 12.6 µM [activator, single point]

Q: With O=C(Nc1ccc(N2CCOCC2)cc1)C1CCCCC1 as the compound, how does the Potency read?
A: inconclusive: 14.1 µM [activator, single point]

Q: With COc1ccc(-c2cn3cc([N+](=O)[O-])ccc3n2)cc1OC as the compound, how does the Potency read?
A: inconclusive: 12.6 µM [activator, partial curve, poor fit]

Q: For CSc1nc(-c2ccco2)nn1C(=O)c1ccco1, which “activation” value is on record?
A: inactive: 2.98%

Q: Which “activation” value does the source give for Cc1ccc(NC(=O)c2cc(N3C(=O)C=CC3=O)ccc2Cl)cc1C here?
A: inactive: -21%

Q: With Cc1c(C(=O)N2C[C@@H](C)O[C@@H](C)C2)oc2c(F)cccc12 as the compound, how does the Potency read?
A: active: 11.2 µM

Q: For COc1ccc(Cc2nc(-c3ccccc3)no2)cc1, which Potency is on record?
A: active: 11.2 µM

Q: With O=C(N/N=C/c1ccc([N+](=O)[O-])cc1)c1cccs1 as the compound, how does the Potency read?
A: inconclusive: 10 µM [activator, partial curve, poor fit]

Q: Which Potency does the source give for Cc1cc(/C=N/Nc2ccc([N+](=O)[O-])cn2)c(C)n1-c1cccc(C(=O)O)c1 here?
A: inconclusive: 35.5 µM [activator, single point]

Q: Which “activation” value does the source give for Cc1nn(-c2ccccc2)c2c1C(c1cccs1)C(C#N)=C(N)O2 (stereo not given) here?
A: inactive: -48.5%

Q: For O/N=C/c1cn(-c2ccc(Cl)cc2)nn1, which Potency is on record?
A: inconclusive: 14.1 µM [activator, partial curve, poor fit]

Q: For Cc1cccc(NC(=O)COc2ccccc2)c1, which “activation” value is on record?
A: inactive: 3.44%

Q: With COCC(C)NC(=O)c1cc(-c2ccc(O)cc2)on1 (stereo not given) as the compound, how does the Potency read?
A: inconclusive: 35.5 µM [activator, single point]

Q: With Cc1ccc(-c2nc(C#N)c(NCCc3ccccn3)o2)cc1 as the compound, how does the Potency read?
A: active: 3.55 µM

Q: For Cc1cccc(NC(=O)c2ccc3snnc3c2)c1C, which “activation” value is on record?
A: inactive: 6.92%

Q: Which Potency does the source give for CC1CCCN(C(=O)COC(=O)c2n[nH]c3ccccc23)C1 (stereo not given) here?
A: inconclusive: 15.8 µM [activator, partial curve, poor fit]

Q: With O=[N+]([O-])c1ccc(NN=Cc2cccc(O)c2)nc1 as the compound, how does the Potency read?
A: inconclusive: 3.16 µM [activator, full curve, poor fit]

Q: Which activation does the source give for Cc1cc(C(=O)CSc2nnc(N)s2)c(C)n1Cc1cccs1 here?
A: inconclusive: -75% [activator]

Q: With O=C1NN(c2ccc(Cl)cc2)C(=O)/C1=C\c1ccc(-c2cccc(C(=O)O)c2)o1 as the compound, how does the Potency read?
A: active: 8.91 µM

Q: Which “activation” value does the source give for Cc1ccc(S(=O)(=O)ON=C2CCN(S(=O)(=O)c3ccccc3)CC2)cc1 here?
A: inactive: 3.57%

Q: For COc1ccccc1N1CCN(C(=O)CSc2ccccc2)CC1, which Potency is on record?
A: inconclusive: 12.6 µM [activator, partial curve, poor fit]

Q: Which Potency does the source give for COc1ccc(NC(=O)C2CCN(c3nc(C)cc(C)n3)CC2)cc1 here?
A: inconclusive: 12.6 µM [activator, single point]

Q: Which Potency does the source give for CCCCOC(=O)Nc1ccc2c(C)cc(=O)oc2c1 here?
A: inconclusive: 1.58 µM [activator, full curve, poor fit]

Q: For Cc1cccc(-c2cc3nc(-c4ccccc4)cc(=O)n3[nH]2)c1, which Potency is on record?
A: inconclusive: 2.51 µM [activator, partial curve, poor fit]

Q: Which Potency does the source give for c1ccc2c(c1)Cc1cc3ccccc3nc1-2 here?
A: inconclusive: 6.31 µM [activator, full curve, poor fit]

Q: Which “activation” value does the source give for Cc1ccc(NS(=O)(=O)c2c(C(=O)N3CCCCCC3)c(C)n(C)c2C)cc1C here?
A: inactive: -10.8%

Q: Which Potency does the source give for Cc1cc(/C=C(\C#N)c2nc3ccccc3[nH]2)c(C)n1C here?
A: inconclusive: 2.24 µM [activator, full curve, poor fit]

Q: With c1ccc2sc(SCc3ccc(-c4nnco4)cc3)nc2c1 as the compound, how does the Potency read?
A: inconclusive: 2 µM [activator, partial curve, poor fit]

Q: With CCn1cc2nc(SCC(=O)Nc3ccc(OC)c(OC)c3)n(Cc3ccc(Cl)cc3)c(=O)c2n1 as the compound, how does the “activation” value read?
A: inactive: -26.9%

Q: With CCOC(=O)c1ccc2nc(C)c(CCC(C)=O)c(Cl)c2c1 as the compound, how does the Potency read?
A: inconclusive: 3.16 µM [activator, partial curve, poor fit]

Q: Which activation does the source give for O=Cc1ccc(OCCOc2ccc([N+](=O)[O-])cc2)cc1 here?
A: inconclusive: 61.6% [activator]

Q: Which Potency does the source give for O=C1C=C(N2CCCCCC2)C(=O)N1c1ccc(Cl)cc1 here?
A: inconclusive: 15.8 µM [activator, partial curve, poor fit]

Q: For COc1ccc2nc(N3CCN(C(=O)C4COc5ccccc5O4)CC3)sc2c1 (stereo not given), which Potency is on record?
A: inconclusive: 2.82 µM [activator, full curve, poor fit]

Q: With COCCN=c1scc(-c2cccs2)n1/N=C(\C)c1ccco1 as the compound, how does the Potency read?
A: inconclusive: 12.6 µM [activator, single point]

Q: With CCCCc1nc2cc(C(=O)N3CCCCC3COC)ccc2o1 (stereo not given) as the compound, how does the “activation” value read?
A: inactive: 39.6%

Q: For S=c1[nH]nc(-c2cccnc2)n1/N=C/C(Cl)=C\c1ccccc1, which Potency is on record?
A: inconclusive: 1.58 µM [activator, partial curve, poor fit]

Q: With Cc1n[nH]c2ccc(Br)cc2c1=O as the compound, how does the “activation” value read?
A: inactive: 4.35%

Q: Which “activation” value does the source give for CC(C)(CNC(=O)c1ccc([N+](=O)[O-])c(Cl)c1)CNC(=O)c1ccc([N+](=O)[O-])c(Cl)c1 here?
A: inactive: -69.3%

Q: With CC1(C(=O)NS(=O)(=O)Cc2ccccc2)CCN1C(=O)CCc1ccccc1 (stereo not given) as the compound, how does the “activation” value read?
A: inactive: 8.93%

Q: With CCc1ccc(-c2cc(N)n(-c3ccccc3)n2)cc1 as the compound, how does the Potency read?
A: inconclusive: 2 µM [activator, partial curve, poor fit]

Q: Which Potency does the source give for COc1ccc2cc(C[C@@H]3CC[C@@H](CO)O3)ccc2c1 here?
A: active: 2.82 µM

Q: Which Potency does the source give for COc1cc(-c2nc(-c3ccccn3)no2)cc(OC)c1OC here?
A: active: 7.94 µM

Q: With CC(=O)CSc1ncnc2sc3c(c12)CCC(C)C3 (stereo not given) as the compound, how does the Potency read?
A: inconclusive: 10 µM [activator, partial curve, poor fit]

Q: Which Potency does the source give for Cc1cc(C(=O)CS(=O)(=O)c2ccccc2)cc(C)c1O here?
A: inconclusive: 11.2 µM [activator, partial curve, poor fit]

Q: With C(=C\c1nc(-c2cccnc2)no1)/c1ccccc1 as the compound, how does the Potency read?
A: active: 2.82 µM

Q: For COc1cccc(NC(=O)Nc2ccc3c(c2)OCO3)c1, which Potency is on record?
A: active: 2.82 µM

Q: With CCC(C)c1ccc(OCc2ccc(C(=O)O)o2)cc1 (stereo not given) as the compound, how does the activation read?
A: inconclusive: -87% [activator]

Q: For CN(C)S(=O)(=O)Oc1cccc(C(=O)Nc2ccccc2Cl)c1, which Potency is on record?
A: inconclusive: 15.8 µM [activator, single point]

Q: Which Potency does the source give for O=C(CSc1nnc2ccccn12)N1CCc2ccccc2C1 here?
A: inconclusive: 10 µM [activator, partial curve, poor fit]

Q: For C=CCn1c(C)cc(C2=NNC(=NCC)SC2)c1C, which activation is on record?
A: inconclusive: -110% [activator]

Q: For CCOc1ccc(C(=O)CSc2nnc3ccccn23)cc1, which Potency is on record?
A: inconclusive: 3.98 µM [activator, partial curve, poor fit]

Q: For C[n+]1cc[nH]c1SCC(=O)c1ccccc1, which Potency is on record?
A: inconclusive: 11.2 µM [activator, partial curve, poor fit]

Q: Which Potency does the source give for O=C(COC(=O)c1cccc(-n2cnnn2)c1)c1ccc(F)c(F)c1 here?
A: inconclusive: 15.8 µM [activator, partial curve, poor fit]

Q: With O=C(O)c1cccc(N=NN2CCCCCC2)c1 as the compound, how does the activation read?
A: inconclusive: -58.6% [activator]

Q: Which Potency does the source give for CN(c1ccccc1)S(=O)(=O)c1nnc(NC(=O)COc2ccccc2)s1 here?
A: inactive

Q: Which Potency does the source give for CCCSC1=NN2CCCC(=O)N=C2S1 here?
A: inconclusive: 15.8 µM [activator, partial curve, poor fit]

Q: For CCCCc1c(O)nc2sc3cc(OC)ccc3n2c1=O, which Potency is on record?
A: active: 11.2 µM

Q: Which Potency does the source give for Cc1cc(NC(=O)c2ccc(Cl)cc2)no1 here?
A: active: 3.98 µM

Q: Which “activation” value does the source give for CCOc1ccccc1NC(=O)C1=C(C)Nc2ncnn2C1c1ccc(NC(C)=O)cc1 (stereo not given) here?
A: inactive: -11.2%

Q: For O=C(NCCS(=O)(=O)NCCc1ccccc1)c1ccc2c(c1)OCO2, which Potency is on record?
A: inconclusive: 1 µM [activator, full curve, poor fit]

Q: For Cc1ccc2nc(-c3ccc(NC(=O)C(C)N4C(=O)c5ccccc5C4=O)cc3)sc2c1 (stereo not given), which Potency is on record?
A: inconclusive: 3.16 µM [activator, partial curve, poor fit]

Q: For CCOC(=O)CC[C@H](NC(=O)Cn1cnc(C(=O)Nc2ccc(C)c(C)c2)n1)C(=O)OCC, which Potency is on record?
A: inconclusive: 10 µM [activator, partial curve, poor fit]
